Test system: Blumeria graminis f. sp. tritici (Erysiphe graminis f. sp. tritici)
Experiment: Example A4: Blumeria graminis f. sp. tritici / wheat / leaf disc preventative (powdery mildew on wheat)
Details: foliar, read-out: control of Blumeria graminis f. sp. tritici
Description: Example A4: Blumeria Graminis F. Sp. Tritici (Erysiphe Graminis F. Sp. Tritici) / Wheat / Leaf Disc Preventative (Powdery Mildew On Wheat)
Wheat leaf segments cv. […] The leaf disks are inoculated by shaking powdery mildew infected plants above the test plates 1 day after application.

SMILES | pest or weed control at 200 ppm [%]
CC(=O)OC(C)C(=O)N(c1cc(F)nc(F)c1)c1nc(C(=O)NC2CCC23CCCC3)c(C)s1 (stereo not drawn) [X.01, [2-[(2,6-difluoro-4-pyridyl)-[5-methyl-4-(spiro[3.4]octan-3-ylcarbamoyl)thiazol-2-yl]amino]-1-methyl-2-oxo-ethyl] acetate] | ≥ 80
CCOC(=O)OC(C)C(=O)N(c1cc(F)nc(F)c1)c1nc(C(=O)NC2CCC2)c(C)s1 (stereo not drawn) [X.02, [2-[[4-(cyclobutylcarbamoyl)-5-methyl-thiazol-2-yl]-(2,6-difluoro-4-pyridyl)amino]-1-methyl-2-oxo-ethyl] ethyl carbonate] | ≥ 80
COC(=O)OC(C)C(=O)N(c1cc(F)nc(F)c1)c1nc(C(=O)NC2CCC23CCCC3)c(C)s1 (stereo not drawn) [X.03, [2-[(2,6-difluoro-4-pyridyl)-[5-methyl-4-(spiro[3.4]octan-3-ylcarbamoyl)thiazol-2-yl]amino]-1-methyl-2-oxo-ethyl] methyl carbonate] | ≥ 80
CCOC(=O)OC(C)C(=O)N(c1cc(F)nc(F)c1)c1nc(C(=O)NC2CCC23CCCC3)c(C)s1 (stereo not drawn) [X.04, [2-[(2,6-difluoro-4-pyridyl)-[5-methyl-4-(spiro[3.4]octan-3-ylcarbamoyl)thiazol-2-yl]amino]-1-methyl-2-oxo-ethyl] ethyl carbonate] | ≥ 80
Cc1sc(N(C(=O)C(C)O)c2cc(F)nc(F)c2)nc1C(=O)NC1CCC12CCCC2 (stereo not drawn) [X.05, 2-[(2,6-difluoro-4-pyridyl)-(2-hydroxypropanoyl)amino]-5-methyl-N-spiro[3.4]octan-3-yl-thiazole-4-carboxamide] | ≥ 80
COC(C)C(=O)N(c1cc(F)nc(F)c1)c1nc(C(=O)NC2CCC2)c(C)s1 (stereo not drawn) [X.07, N-cyclobutyl-2-[(2,6-difluoro-4-pyridyl)-(2-methoxypropanoyl)amino]-5-methylthiazole-4-carboxamide] | ≥ 80
CC(=O)OCC(=O)N(c1cc(F)nc(F)c1)c1nc(C(=O)NC2CCC2(C)C)c(C)s1 (stereo not drawn) [X.08, [2-[(2,6-difluoro-4-pyridyl)-[4-[(2,2-dimethylcyclobutyl)carbamoyl]-5-methyl-thiazol-2-yl]amino]-2-oxo-ethyl] acetate] | ≥ 80
Cc1sc(N(C(=O)Cc2ccccc2)c2cc(F)nc(F)c2)nc1C(=O)NC1CCC1(C)C (stereo not drawn) [X.09, 2-[(2,6-difluoro-4-pyridyl)-(2-phenylacetyl)amino]-N-(2,2-dimethylcyclobutyl)-5-methyl-thiazole-4-carboxamide] | ≥ 80
COc1sc(N(C(C)=O)c2cc(F)nc(F)c2)nc1C(=O)NC1CCC12CCCC2 (stereo not drawn) [X.10, 2-[acetyl-(2,6-difluoro-4-pyridyl)amino]-5-methoxy-N-spiro[3.4]octan-3-yl-thiazole-4-carboxamide] | ≥ 80
COCC(=O)N(c1cc(F)nc(F)c1)c1nc(C(=O)NC2CCC2)c(C)s1 [X.12, N-cyclobutyl-2-[(2,6-difluoro-4-pyridyl)-(2-methoxyacetyl)amino]-5-methyl-thiazole-4-carboxamide] | ≥ 80
CC(=O)N(c1cc(F)nc(F)c1)c1nc(C(=O)NC2CCC2)c(C)s1 [X.13, 2-[acetyl-(2,6-difluoro-4-pyridyl)amino]-N-cyclobutyl-5-methyl-thiazole-4-carboxamide] | ≥ 80
Cc1sc(N(C(=O)COCc2ccccc2)c2cc(F)nc(F)c2)nc1C(=O)NC1CCC1(C)C (stereo not drawn) [X.14, 2-[(2-benzyloxyacetyl)-(2,6-difluoro-4-pyridyl)amino]-N-(2,2-dimethylcyclobutyl)-5-methyl-thiazole-4-carboxamide] | ≥ 80
CCOCC(=O)N(c1cc(F)nc(F)c1)c1nc(C(=O)NC2CCC2(C)C)c(C)s1 (stereo not drawn) [X.15, 2-[(2,6-difluoro-4-pyridyl)-(2-ethoxyacetyl)amino]-N-(2,2-dimethylcyclobutyl)-5-methyl-thiazole-4-carboxamide] | ≥ 80
CCN(CC)C(=O)N(c1cc(F)nc(F)c1)c1nc(C(=O)NC2CCC2(C)C)c(C)s1 (stereo not drawn) [X.16, 2-[diethylcarbamoyl-(2,6-difluoro-4-pyridyl)amino]-N-(2,2-dimethylcyclobutyl)-5-methyl-thiazole-4-carboxamide] | ≥ 80
Cc1sc(N(C(=O)CCl)c2cc(F)nc(F)c2)nc1C(=O)NC1CCC1(C)C (stereo not drawn) [X.17, 2-[(2-chloroacetyl)-(2,6-difluoro-4-pyridyl)amino]-N-(2,2-dimethylcyclobutyl)-5-methyl-thiazole-4-carboxamide] | ≥ 80
COC(=O)CC(=O)N(c1cc(F)nc(F)c1)c1nc(C(=O)NC2CCC2(C)C)c(C)s1 (stereo not drawn) [X.18, methyl 3-[(2,6-difluoro-4-pyridyl)-[4-[(2,2-dimethylcyclobutyl)carbamoyl]-5-methyl-thiazol-2-yl]amino]-3-oxo-propanoate] | ≥ 80
Cc1sc(N(C(=O)c2ccco2)c2cc(F)nc(F)c2)nc1C(=O)NC1CCC1(C)C (stereo not drawn) [X.19, 2-[(2,6-difluoro-4-pyridyl)-(furan-2-carbonyl)amino]-N-(2,2-dimethylcyclobutyl)-5-methyl-thiazole-4-carboxamide] | ≥ 80

SMILES | pest or weed control at 200 ppm [%]
Cc1sc(N(C(=O)CC(F)(F)F)c2cc(F)nc(F)c2)nc1C(=O)NC1CCC1(C)C (stereo not drawn) [X.21, 2-[(2,6-difluoro-4-pyridyl)-(3,3,3-trifluoropropanoyl)amino]-N-(2,2-dimethylcyclobutyl)-5-methyl-thiazole-4-carboxamide] | ≥ 80
COC(=O)CCC(=O)N(c1cc(F)nc(F)c1)c1nc(C(=O)NC2CCC2(C)C)c(C)s1 (stereo not drawn) [X.23, methyl 4-[(2,6-difluoro-4-pyridyl)-[4-[(2,2-dimethylcyclobutyl)carbamoyl]-5-methyl-thiazol-2-yl]amino]-4-oxo-butanoate] | ≥ 80
Cc1sc(N(C(=O)C2CC2)c2cc(F)nc(F)c2)nc1C(=O)NC1CCC1(C)C (stereo not drawn) [X.24, 2-[cyclopropanecarbonyl-(2,6-difluoro-4-pyridyl)amino]-N-(2,2-dimethylcyclobutyl)-5-methyl-thiazole-4-carboxamide] | ≥ 80
Cc1sc(N(C(=O)Oc2ccccc2)c2cc(F)nc(F)c2)nc1C(=O)NC1CCC1(C)C (stereo not drawn) [X.26, phenyl N-(2,6-difluoro-4-pyridyl)-N-[4-[(2,2-dimethylcyclobutyl)carbamoyl]-5-methyl-thiazol-2-yl]carbamate] | ≥ 80
Cc1sc(N(C(=O)CF)c2cc(F)nc(F)c2)nc1C(=O)NC1CCC1(C)C (stereo not drawn) [X.27, 2-[(2,6-difluoro-4-pyridyl)-(2-fluoroacetyl)amino]-N-(2,2-dimethylcyclobutyl)-5-methyl-thiazole-4-carboxamide] | ≥ 80
COCCOC(=O)N(c1cc(F)nc(F)c1)c1nc(C(=O)NC2CCC2(C)C)c(C)s1 (stereo not drawn) [X.28, 2-methoxyethyl N-(2,6-difluoro-4-pyridyl)-N-[4-[(2,2-dimethylcyclobutyl)carbamoyl]-5-methyl-thiazol-2-yl]carbamate] | ≥ 80
COCC(=O)N(c1cc(F)nc(F)c1)c1nc(C(=O)NC2CCC2(C)C)c(C)s1 (stereo not drawn) [X.29, 2-[(2,6-difluoro-4-pyridyl)-(2-methoxyacetyl)amino]-N-(2,2-dimethylcyclobutyl)-5-methyl-thiazole-4-carboxamide] | ≥ 80
CCOC(=O)N(c1cc(F)nc(F)c1)c1nc(C(=O)NC2CCC2(C)C)c(C)s1 (stereo not drawn) [X.30, ethyl N-(2,6-difluoro-4-pyridyl)-N-[4-[(2,2-dimethylcyclobutyl)carbamoyl]-5-methyl-thiazol-2-yl]carbamate] | ≥ 80
Cc1sc(N(C(=O)c2cccs2)c2cc(F)nc(F)c2)nc1C(=O)NC1CCC1(C)C (stereo not drawn) [X.31, 2-[(2,6-difluoro-4-pyridyl)-(thiophene-2-carbonyl)amino]-N-(2,2-dimethylcyclobutyl)-5-methyl-thiazole-4-carboxamide] | ≥ 80
COC(=O)N(c1cc(F)nc(F)c1)c1nc(C(=O)NC2CCC2(C)C)c(C)s1 (stereo not drawn) [X.32, methyl N-(2,6-difluoro-4-pyridyl)-N-[4-[(2,2-dimethylcyclobutyl)carbamoyl]-5-methyl-thiazol-2-yl]carbamate] | ≥ 80
Cc1sc(N(C=O)c2cc(F)nc(F)c2)nc1C(=O)NC1CCC1(C)C (stereo not drawn) [X.33, 2-[(2,6-difluoro-4-pyridyl)-formyl-amino]-N-(2,2-dimethylcyclobutyl)-5-methylthiazole-4-carboxamide] | ≥ 80
CCOC(=O)C(=O)N(c1cc(F)nc(F)c1)c1nc(C(=O)NC2CCC2(C)C)c(C)s1 (stereo not drawn) [X.34, ethyl 2-[(2,6-difluoro-4-pyridyl)-[4-[(2,2-dimethylcyclobutyl)carbamoyl]-5-methyl-thiazol-2-yl]amino]-2-oxo-acetate] | ≥ 80
Cc1sc(N(C(=O)c2ccccc2)c2cc(F)nc(F)c2)nc1C(=O)NC1CCC1(C)C (stereo not drawn) [X.35, 2-[benzoyl-(2,6-difluoro-4-pyridyl)amino]-N-(2,2-dimethylcyclobutyl)-5-methylthiazole-4-carboxamide] | ≥ 80
CC(=O)N(c1cc(F)nc(F)c1)c1nc(C(=O)NC2CCC2(C)C)c(C)s1 (stereo not drawn) [X.36, 2-[acetyl-(2,6-difluoro-4-pyridyl)amino]-N-(2,2-dimethylcyclobutyl)-5-methylthiazole-4-carboxamide] | ≥ 80
CC(=O)N(c1cc(F)nc(F)c1)c1nc(C(=O)NC2CCC23CCCC3)c(C)s1 (stereo not drawn) [X.37, 2-[acetyl-(2,6-difluoro-4-pyridyl)amino]-5-methyl-N-spiro[3.4] octan-3-yl-thiazole-4-carboxamide] | ≥ 80
Cc1sc(N(C(=O)C(C)C)c2cc(F)nc(F)c2)nc1C(=O)NC1CCC1(C)C (stereo not drawn) [X.38, 2-[(2,6-difluoro-4-pyridyl)-(2-methylpropanoyl)amino]-N-(2,2-dimethylcyclobutyl)-5-methyl-thiazole-4-carboxamide] | ≥ 80
